Assay results taken from PubChem BioAssay AID1030 (National Center for Advancing Translational Sciences (NCATS), 2008).
“And” between values parts separate entries of the source, which are not always exact repeats. Equal values may be shown once. Among all 220,000 compounds or so, about 16,000 (7.3%) were called active. Inconclusive results, whose numbers are uncertain, are shown with a selection of clear calls. Calls follow the shape of the dose curve; as a rule, active = well fitted inhibition curve with a large enough effect (not every such curve was filed as active); inconclusive = small, poorly fitted or top-dose-only effect, or another doubt; inactive = no such curve, though single readings can be large or run the other way. Potencies beside an inconclusive call are fits to weak or partial responses and may not hold up.
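For activity, negative = inhibition in this document: plate controls were no enzyme wells and a reference inhibitor.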
Potency is read from the fitted curve at half-maximal effect; tags tell the direction and shape of the fitted curve.

These molecules were tested against Aldehyde dehydrogenase 1A1 (Homo sapiens) (UniProt P00352) (assay: qHTS Assay for Inhibitors of Aldehyde Dehydrogenase 1 (ALDH1A1)). Conditions: Purified ALDH1A1, NADH fluorescence, propionaldehyde substrate; series mostly up to 75.3 µM.
UniProt P00352, sequence (P00352 whole entry, looked up): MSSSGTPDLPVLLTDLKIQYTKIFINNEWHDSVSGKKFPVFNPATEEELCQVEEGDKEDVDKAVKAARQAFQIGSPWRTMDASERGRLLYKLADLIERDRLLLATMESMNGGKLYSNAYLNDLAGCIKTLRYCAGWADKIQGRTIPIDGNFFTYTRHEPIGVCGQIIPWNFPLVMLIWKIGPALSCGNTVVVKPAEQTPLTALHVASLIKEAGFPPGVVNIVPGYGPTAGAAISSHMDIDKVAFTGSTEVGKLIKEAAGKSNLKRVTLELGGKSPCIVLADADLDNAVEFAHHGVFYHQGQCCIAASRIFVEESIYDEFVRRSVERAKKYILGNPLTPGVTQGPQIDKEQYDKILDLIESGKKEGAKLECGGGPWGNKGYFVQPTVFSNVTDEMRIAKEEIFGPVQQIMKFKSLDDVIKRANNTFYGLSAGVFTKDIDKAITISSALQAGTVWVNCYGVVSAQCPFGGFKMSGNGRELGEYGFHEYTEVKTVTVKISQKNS
With `CCOc1ccc(/C=C/C(=O)Nc2ccc(C(N)=O)cc2)cc1OC` the Potency was inconclusive: 22.4 µM [inhibitor, partial curve].
For `CCn1c(=O)cc(OCC(=O)Nc2cccnc2)c2ccccc21`, the Potency was inconclusive: 17.8 µM [inhibitor, partial curve].
For `COc1cc2sc(C)nc2cc1C`, the Potency was “inactive”.
With `CCOc1ccc2c3c(c(=O)oc2c1OCC)CCCC3` the Potency was inconclusive: 37.7 µM [inhibitor, single point].
With `COc1ccc(O)c(/C=N/n2c(-c3ccco3)csc2=Nc2cccnc2)c1` the Potency was “inactive”.
With `COc1ccnc(NCc2ccc(Cl)cc2)c1C#N` the Potency was inconclusive: 31.6 µM [inhibitor, partial curve].
For `Cn1cc(-c2nnnn2-c2cccc(C(F)(F)F)c2)c(C(F)(F)F)n1`, the Potency was inconclusive: 31.6 µM [inhibitor, partial curve, poor fit].
With `O=C(/C=C/c1cccs1)NC(=S)Nc1ccccc1` the Potency was inconclusive: 39.8 µM [inhibitor, single point].
With `C=CCc1ccc(OCC(O)COCC)c(OC)c1` (stereo not given) the Potency was active: 28.2 µM.
For `COC(=O)Nc1ccc(S(=O)(=O)Nc2ncccn2)cc1`, the Potency was inconclusive: 39.8 µM [inhibitor, single point].
For `CN(C)S(=O)(=O)c1ccc(C(=O)Nc2ccc(S(=O)(=O)NC3=NCCCCC3)cc2)cc1`, the Potency was inconclusive: 31.6 µM [inhibitor, partial curve].
In the case of `C=CCCCCCCCCC(=O)NN`, the Potency is reported as active: 14.1 µM.
For `CCOC(=O)Cn1c(=NC(=O)CSC(C)=O)sc2cc(F)ccc21`, the Potency was inconclusive: 39.8 µM [inhibitor, single point].
`COc1ccc(C2=NOC(CN3C(=O)c4ccccc4S3(=O)=O)C2)cc1` (stereo not given) was tested, and the Potency was inconclusive: 10 µM [inhibitor, partial curve].
For `Cc1[nH]nc2c1C(c1cccc(O)c1)C1=C(CC(C)(C)CC1=O)N2` (stereo not given), the Potency was inconclusive: 31.6 µM [inhibitor, partial curve].
`CC(=O)c1sc(NC(=O)COc2ccc(C)c(C)c2)nc1C` was tested, and the Potency was inconclusive: 39.8 µM [inhibitor, single point].
With `Cc1[nH]nc2c1C1(CCN(C(=O)OCc3ccccc3)CC1)C(C#N)=C(N)O2` the Potency was inconclusive: 15.8 µM [inhibitor, partial curve].
For `CCOc1ccc2[nH]c(=O)c(CN(Cc3ccc(F)cc3)C(=O)N3CCCC3)cc2c1`, the Potency was inconclusive: 28.2 µM [inhibitor, partial curve].
With `O=C1C[C@H]2OCC=C3CN4CC[C@@]5(C(=O)O)[C@H](N1)C2[C@H]3C[C@H]45` (stereo not given in full) the activity, negative = inhibition was inactive: -5.13% [at 13.5 µM].
`CC(C)(C)OC(=O)N/N=C/c1cccn1-c1ccc([N+](=O)[O-])cc1` was tested, and the Potency was inconclusive: 44.7 µM [inhibitor, single point].
With `COc1ccc(COc2cc(-c3cccc(OC)c3)nc3ccc(NC(=O)c4ccc(OC)cc4)cc23)cc1` the Potency was inconclusive: 35.5 µM [inhibitor, single point] and inconclusive: 39.8 µM [inhibitor, single point].
In the case of `CC1Cc2ccccc2N1C(=O)CCS(=O)(=O)c1cccs1` (stereo not given), the Potency is reported as inconclusive: 35.5 µM [inhibitor, single point].
For `C/C(CCC(C)C)=N\NC(=S)Nc1cc(S(=O)(=O)N2CCOCC2)ccc1N1CCOCC1`, the Potency was “inactive”.
In the case of `O=c1cnc2cnc(Oc3ccccc3)nc2n1C1CC1`, the Potency is reported as inconclusive: 25.1 µM [inhibitor, single point].
In the case of `Cc1cc(S(=O)(=O)Nc2nc(CN3CCOCC3)nc3sc4c(c23)CCCC4)ccc1F`, the Potency is reported as active: 14.1 µM.
For `O=C(N/N=C/c1ccc(Cl)cc1)C(=O)N1CCCCCC1`, the Potency was “inactive”.
For `CCc1ccc(NC(=O)C(=O)NCCN2CCN(C(=O)c3ccco3)CC2)cc1`, the Potency was active: 22.4 µM.
For `CC(=O)NC(Cc1ccccc1)C(=O)N1CCN(C(=O)c2ccco2)CC1` (stereo not given), the Potency was active: 10 µM.
For `O=c1[nH]c(-c2ccccc2)c(-c2ccccc2)[nH]1`, the Potency was inconclusive: 31.6 µM [inhibitor, partial curve].
With `COc1ccccc1NC(=O)CS(=O)(=O)c1cn(CC(=O)N2CCOCC2)c2ccccc12` the Potency was inconclusive: 39.8 µM [inhibitor, single point].
In the case of `COc1ccccc1CNC(=O)CCn1c(=O)[nH]c2ccsc2c1=O`, the Potency is reported as “inactive”.
For `Cc1ccc(N2C(=O)c3ccccc3C2Nc2ccc(S(=O)(=O)N3CCOCC3)cc2)nc1` (stereo not given), the Potency was inconclusive: 25.1 µM [inhibitor, single point].
`CC(=O)Oc1ccc2c(C)cc(=O)oc2c1` was tested, and the Potency was inconclusive: 3.16 µM [inhibitor, partial curve].
In the case of `Cc1ccc(C)c(-n2c3nc(=O)[nH]c(=O)c-3cc3cc([N+](=O)[O-])ccc32)c1`, the Potency is reported as inconclusive: 25.1 µM [inhibitor, partial curve].
For `C=CCNC(=S)Nc1cc(C)ccn1`, the Potency was inconclusive: 39.8 µM [inhibitor, single point].
In the case of `Cc1sc2nc(SCC(=O)N3CCCC3)[nH]c(=O)c2c1C`, the Potency is reported as inconclusive: 39.8 µM [inhibitor, single point].
For `Nn1c(SCC(=O)Nc2nccs2)nncc1=O`, the Potency was inconclusive: 35.5 µM [inhibitor, single point].
With `NS(=O)(=O)c1ccc(NC(=O)Cc2c(F)cccc2Cl)cc1` the Potency was “inactive”.
For `Cc1sc2nc(CN(C(=O)c3cccs3)C3CCCC3)[nH]c(=O)c2c1C`, the Potency was “inactive”.
In the case of `COC(=O)[C@@H]1C[C@H]2CC[C@H](O)C[C@H]2N1Cc1ccccc1OS(=O)(=O)c1ccc(C)cc1`, the Potency is reported as inconclusive: 25.1 µM [inhibitor, single point].
In the case of `O=C(CN1C(=O)CC(c2ccco2)Sc2ccccc21)Nc1ccccc1F` (stereo not given), the Potency is reported as inconclusive: 28.2 µM [inhibitor, single point].
For `CC(=O)N1CCN(c2nc(-c3ccco3)c3c(c2C#N)CC(C)(C)SC3)CC1`, the Potency was inconclusive: 14.1 µM [inhibitor, partial curve].
For `CCCCN(C(=O)NC(=O)Nc1ccc(C)cn1)S(C)(=O)=O`, the Potency was inconclusive: 35.5 µM [inhibitor, single point].
In the case of `O=C1C=C(O)C(n2cncn2)C(c2ccc(F)cc2)C1` (stereo not given), the Potency is reported as inconclusive: 25.1 µM [inhibitor, single point].
For `S=c1[nH]nc(-c2ccccc2)n1/N=C/C=C/c1ccco1`, the Potency was inconclusive: 39.8 µM [inhibitor, single point].
`COc1ccc(Nc2ccnc(Nc3ccc(OC)cc3)n2)cc1` was tested, and the Potency was inconclusive: 39.8 µM [inhibitor, single point].
With `CCOC(=O)c1c(NC(=O)C2C3C=CC(C3)C2C(=O)O)sc2c1CCCC2` (stereo not given) the Potency was “inactive”.
For `CCOC(=O)C1Cn2c(nc3c(c2=O)C2(CCCC2)Cc2ccccc2-3)S1` (stereo not given), the Potency was inconclusive: 37.7 µM [inhibitor, single point].
With `CC1(C)CC(=O)C(C=N)=C(O)C1` the Potency was “inactive”.
With `COc1ccc(OC)c(/C=C/C(=O)OCC(=O)Nc2cccc(C(C)=O)c2)c1` the Potency was inconclusive: 31.6 µM [inhibitor, single point].
For `Cc1cc(C)n(-c2nc(Nc3ccccc3)nc(-n3nc(C)cc3C)n2)n1`, the Potency was “inactive”.
`CCOC(=O)C(NC(C)=O)C(=O)Nc1ccc(OC)cc1` (stereo not given) was tested, and the Potency was “inactive”.
For `Cc1ccc(-c2nc3ccccc3[nH]2)cc1NC(=O)c1sc2cc(Cl)ccc2c1Cl`, the Potency was inconclusive: 25.1 µM [inhibitor, partial curve].
With `CCC(C)N(C)C(=O)c1cc2ccccc2c(-c2ccccc2Cl)n1` (stereo not given) the Potency was “inactive”.
With `O=C(O)CC12C[C@H]3C[C@@H](C1)CC(n1ncc(N4CCN(c5ccccc5)CC4)c(Cl)c1=O)(C3)C2` the Potency was active: 7.94 µM.
In the case of `CCOCCCN(CCC#N)S(=O)(=O)c1ccc(S(=O)(=O)N2CCCC2)cc1`, the Potency is reported as inconclusive: 25.1 µM [inhibitor, single point].
With `CCCSC1=C(C#N)C(c2ccc(Cl)cc2Cl)CC(=O)N1` (stereo not given) the Potency was active: 20 µM.
With `O=C(CNC(=O)c1ccccc1F)N/N=C/c1cc(Br)ccc1OC(=O)/C=C/c1ccco1` the Potency was inconclusive: 31.6 µM [inhibitor, single point].
For `CCOC(=O)C1=C(c2ccccc2)NC(=O)NC1c1cc(Br)c(O)c(OC)c1` (stereo not given), the Potency was active: 22.4 µM.
With `N#CCCn1c(SCC(=O)Nc2ccc(N3CCOCC3)cc2)nc2ccccc21` the Potency was inconclusive: 44.7 µM [inhibitor, single point].
In the case of `Cc1ccc(NC(=O)CSc2nc(CSc3ccc(C)cc3)cc(=O)[nH]2)cc1`, the Potency is reported as inconclusive: 8.91 µM [inhibitor, partial curve].
With `Cn1c(=O)c2[nH]c(Nc3ccccc3)nc2n(C)c1=O` the Potency was “inactive”.
In the case of `N#CCSc1nc2cc(C(=O)N3CCC(C(N)=O)CC3)ccc2c2nc3ccccc3n12`, the Potency is reported as active: 28.2 µM.
`CC(C)C[C@@H](N)c1nnc(SCC(=O)c2ccc(Cl)cc2)o1` was tested, and the Potency was inconclusive: 39.8 µM [inhibitor, single point].
`COc1cccc(NC(=S)NCc2ccc3c(c2)cc(C)n3C)c1` was tested, and the Potency was “inactive”.
With `C=CCn1c(SCc2nc3scc(-c4ccccc4)c3c(=O)[nH]2)nnc1-c1ccccc1F` the Potency was inconclusive: 39.8 µM [inhibitor, single point].
`COc1ccc(-c2nc3cnc(N4CCNCC4)nc3n(CCC#N)c2=O)cc1` was tested, and the Potency was inconclusive: 28.2 µM [inhibitor, single point].
For `COC(=O)c1ccccc1NC(=O)C1CCCN(S(=O)(=O)c2ccc(F)cc2)C1` (stereo not given), the Potency was “inactive”.
`CCCCN1CNC(=S)N(c2ccc(C(=O)OCC)cc2)C1` was tested, and the Potency was “inactive”.
In the case of `C/C(=N/NC(=O)c1ccc(Br)o1)C(C)C`, the Potency is reported as “inactive”.
